Test [1] concerns the target GST-Rab40c (human) (UniProt Q96S21). The experiment in a line: pull-down; GST or GST fusion proteins immobilized onto GST-Sepharose-4B resin, incubated with lysates of MCF7 cells transfected with GFP-Rab40 constructs; western blot with GFP antibody; only the target purified. (A western blot detects proteins with antibodies after separation by electrophoresis.)
The target is the same in test [2]. The experiment in a line: pull-down; GST or GST fusion proteins coupled to GST-Sepharose 4B resin, incubated with 3T3-L1 cell lysates; retained proteins blotted with antibodies against TIP47, Perilipin or ADRP; only the target purified.
In test [3] the target is GST-Rab40c(SOCS) (human) (UniProt Q96S21). Described as above.
Test [4] concerns the target T1, GST-Rab40c (human), Q96S21.
T1 chain: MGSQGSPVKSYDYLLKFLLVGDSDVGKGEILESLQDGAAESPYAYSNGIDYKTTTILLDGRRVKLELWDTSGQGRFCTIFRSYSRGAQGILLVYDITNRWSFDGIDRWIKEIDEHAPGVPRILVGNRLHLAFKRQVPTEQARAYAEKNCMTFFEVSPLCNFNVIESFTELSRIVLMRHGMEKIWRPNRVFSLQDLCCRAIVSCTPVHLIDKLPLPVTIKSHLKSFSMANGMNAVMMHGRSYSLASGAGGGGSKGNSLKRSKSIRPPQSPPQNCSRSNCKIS
The test is described as follows: pull-down; GST or GST fusion proteins immobilized onto GST-Sepharose-4B resin, incubated with lysates of MCF7 cells transfected with GFP-Rab40 constructs; western blot with GFP antibody; only the target purified. To be noted: remark: other sources report otherwise.

Test [5] has as its target T2, GST-Rab40b (human), Q12829.
T2 chain: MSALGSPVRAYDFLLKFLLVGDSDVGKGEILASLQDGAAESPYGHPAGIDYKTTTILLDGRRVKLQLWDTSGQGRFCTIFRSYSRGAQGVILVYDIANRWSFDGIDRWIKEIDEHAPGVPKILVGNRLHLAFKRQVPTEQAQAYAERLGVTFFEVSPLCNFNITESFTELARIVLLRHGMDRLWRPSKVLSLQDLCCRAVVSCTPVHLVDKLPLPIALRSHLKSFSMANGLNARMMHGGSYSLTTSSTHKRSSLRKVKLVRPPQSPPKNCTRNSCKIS
The test is described as above. To be noted: remark: other sources report otherwise.

No constants are given. Whether binding was seen depends on the method and setting. In cells and extracts the contact can be indirect. Some binding calls cover weakened binding; strength is not graded here. For some assays here: Where a sequence is shown, tags or fusion partners need not be part of it.

Consider “GFP-Rab40c(SOCS) (from UniProt Q96S21 1-281)”, for which the binding entry in test [1] was “no binding”. For “GFP-Rab40cQ73L (from UniProt Q96S21 1-281)”, the binding result in test [1] is given as “binds”.

B1: TIP47 (tail-interacting protein 47 KDa) (protein, UniProt Q9DBG5 1-437)
chain: MSSNGTDAPAEAQAAMEEPVVQPSVVDRVAGLPLISSTYGMVSAAYTSTKENYPHVRTVCDVAEKGVKTLTTAAVSTAQPILSKLEPQIATASEYAHRGLDRLQESLPILQQPTEKVLADTKELVSSTVSGAQEMVSSSVSSAKETVATRVTGAVDVTLGAVQNSVDKTKSAMTSGVQSVMGSRVGQMVISGVDRVLVKSEAWADNRLPLTEAELALIATPPEDSDMASLQQQRQEQNYFVRLGSLSERLRNHAYEHSLGKLQNARQKAQETLQQLTSVLGLMESVKQGVDQRLGEGQEKLHQMWLSWNQKTPQDAEKDPAKPEQVEARALSMFRDITQQLQSMCVALGASIQGLPSHVREQAQQARSQVNDLQATFSGIHSFQDLSAGVLAQTRERIARAREALDNTVEYVAQNTPAMWLVGPFAPGITEKTPEGK
Regarding B1, the binding result in test [2] was “binds”; in test [3], “no binding”.

B2: Perilipin (protein, UniProt Q8CGN5 1-517)
chain: MSMNKGPTLLDGDLPEQENVLQRVLQLPVVSGTCECFQKTYNSTKEAHPLVASVCNAYEKGVQGASNLAAWSMEPVVRRLSTQFTAANELACRGLDHLEEKIPALQYPPEKIASELKGTISTRLRSARNSISVPIASTSDKVLGATLAGCELALGMAKETAEYAANTRVGRLASGGADLALGSIEKVVEFLLPPDKESAPSSGRQRTQKAPKAKPSLVRRVSTLANTLSRHTMQTTAWALKQGHSLAMWIPGVAPLSSLAQWGASAAMQVVSRRQSEVRVPWLHNLAASQDESHDDQTDTEGEETDDEEEEEESEAEENVLREVTALPNPRGLLGGVVHTVQNTLRNTISAVTWAPAAVLGTVGRILHLTPAQAVSSTKGRAMSLSDALKGVTDNVVDTVVHYVPLPRLSLMEPESEFRDIDNPSAEAERKGSGARPASPESTPRPGQPRGSLRSVRGLSAPSCPGLDDKTEASARPGFLAMPREKPARRVSDSFFRPSVMEPILGRAQYSQLRKKS
For the molecule B2, in test [2], the binding entry is on record as “no binding”.

B3: ADRP (adipocyte differentiation related protein or adipophilin) (protein, UniProt P43883 1-425)
chain: MAAAVVDPQQSVVMRVANLPLVSSTYDLVSSAYVSTKDQYPYLRSVCEMAEKGVKTVTSAAMTSALPIIQKLEPQIAVANTYACKGLDRMEERLPILNQPTSEIVASARGAVTGAKDVVTTTMAGAKDSVASTVSGVVDKTKGAVTGSVERTKSVVNGSINTVLGMVQFMNSGVDNAITKSELLVDQYFPLTQEELEMEAKKVEGFDMVQKPSNYERLESLSTKLCSRAYHQALSRVKEAKQKSQETISQLHSTVHLIEFARKNMHSANQKIQGAQDKLYVSWVEWKRSIGYDDTDESHCVEHIESRTLAIARNLTQQLQTTCQTVLVNAQGLPQNIQDQAKHLGVMAGDIYSVFRNAASFKEVSDGVLTSSKGQLQKMKESLDEVMDYFVNNTPLNWLVGPFYPQSTEVNKASLKVQQSEVKAQ
On to B3, for which the binding entry in test [2] is “no binding”.

B4: GFP-Rab40c, Q96S21 1-281 (protein)
chain: T1 chain
B4: the binding result in test [4] was “binds”.

B5: GFP-Rab40b, Q12829 1-278 (protein)
chain: T2 chain
Turning to B5, in test [5], the binding entry is on record as “no binding”.
